Experimental data published in the supplement of paper PMC12067230.
The data scatter; read single values as rough.
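Note: [psi-pin-] Saccharomyces cerevisiae expressing SupN fusions, induced by 100 µM Cu2SO4, selected 7 d at 30 °C without adenine and uracil, scored by deep sequencing of output versus input.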

Assay: amyloid nucleation score relative to library mode (yeast Sup35 reporter selection) (log enrichment difference); higher = more amyloid nucleation; sequences are the first 22 residues of the Bri2 peptide extended by up to 12 random residues
Conditions: random library (experiment): 1;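 active = nucleation score significantly above 0 at FDR 0.05; inactive = not significantly above 0 or absent from output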
In the case of EASNCFAIRHFENKFAVETLICGTKRSCDLSALK, the amyloid nucleation score is reported as “inactive”.

Same assay, conditions: random library (experiment): 2
Sequence EASNCFAIRHFENKFAVETLICGSLS has an amyloid nucleation score of 1.48. With EASNCFAIRHFENKFAVETLICGSM the amyloid nucleation score was “inactive”. EASNCFAIRHFENKFAVETLICGSMRYLTDTRRL showed an amyloid nucleation score of 3.2. EASNCFAIRHFENKFAVETLICGSNTRAS showed an amyloid nucleation score of 4.07. With EASNCFAIRHFENKFAVETLICGSNVNSRITEVV the amyloid nucleation score was “inactive”. Work on EASNCFAIRHFENKFAVETLICGSPCERMTVFVK yielded an amyloid nucleation score of 0.274. With EASNCFAIRHFENKFAVETLICGSPERYNYVGSG the amyloid nucleation score was “inactive”. In the case of EASNCFAIRHFENKFAVETLICGSPYVRYLAPGH, the amyloid nucleation score is reported as “inactive”. Sequence EASNCFAIRHFENKFAVETLICGSQFLIGRFIWQ has an amyloid nucleation score of -0.262. For EASNCFAIRHFENKFAVETLICGSQLSKSNCWNS, the amyloid nucleation score was 3. EASNCFAIRHFENKFAVETLICGSQTCQLNGLDR showed an amyloid nucleation score of -0.0198. Work on EASNCFAIRHFENKFAVETLICGSSFIYSYGYRG yielded an amyloid nucleation score of 3.4. With EASNCFAIRHFENKFAVETLICGSSIGNMRFFTC the amyloid nucleation score was 5.72. With EASNCFAIRHFENKFAVETLICGSSNWGSSSWYG the amyloid nucleation score was 4.44. For EASNCFAIRHFENKFAVETLICGSSQLPAPLLGR, the amyloid nucleation score was “inactive”. For EASNCFAIRHFENKFAVETLICGST, the amyloid nucleation score was -0.104. For EASNCFAIRHFENKFAVETLICGSTRGVLLRIKG, the amyloid nucleation score was “inactive”. For EASNCFAIRHFENKFAVETLICGSVEFSVYFREK, the amyloid nucleation score was 4.26. For EASNCFAIRHFENKFAVETLICGSVFRVYCPHSW, the amyloid nucleation score was 7.34. With EASNCFAIRHFENKFAVETLICGSVVFSCWTIGG the amyloid nucleation score was “inactive”. With EASNCFAIRHFENKFAVETLICGSVYGLVAFCMS the amyloid nucleation score was 4.14. With EASNCFAIRHFENKFAVETLICGSWTWAIGVCAC the amyloid nucleation score was 5.47. EASNCFAIRHFENKFAVETLICGSWVPGGRSLSS gave an amyloid nucleation score of 5.51. For EASNCFAIRHFENKFAVETLICGSYADFGLRVVA, the amyloid nucleation score was “inactive”. With EASNCFAIRHFENKFAVETLICGSYTVFLMCTGS the amyloid nucleation score was “inactive”. In the case of EASNCFAIRHFENKFAVETLICGSYWYICVFMIW, the amyloid nucleation score is reported as “inactive”. EASNCFAIRHFENKFAVETLICGTCID gave an amyloid nucleation score of 6.5. In the case of EASNCFAIRHFENKFAVETLICGTEEAPGRPRAW, the amyloid nucleation score is reported as “inactive”. In the case of EASNCFAIRHFENKFAVETLICGTG, the amyloid nucleation score is reported as “inactive”. For EASNCFAIRHFENKFAVETLICGTGDRLKYRDKD, the amyloid nucleation score was “inactive”. For EASNCFAIRHFENKFAVETLICGTIDKGSVTTCC, the amyloid nucleation score was “inactive”.

Same assay, conditions: random library (experiment): 3
In the case of EASNCFAIRHFENKFAVETLICGSLANETLECVG, the amyloid nucleation score is reported as “inactive”. Work on EASNCFAIRHFENKFAVETLICGSLNIERVMLRA yielded an amyloid nucleation score of 4.01. Work on EASNCFAIRHFENKFAVETLICGSMAMTSQVGLR yielded an amyloid nucleation score of 1. In the case of EASNCFAIRHFENKFAVETLICGSMLSRGWEGTL, the amyloid nucleation score is reported as 3.26. Sequence EASNCFAIRHFENKFAVETLICGSNAGSAASKCR has an amyloid nucleation score of 1.12. Work on EASNCFAIRHFENKFAVETLICGSNMNRTMRGSR yielded an amyloid nucleation score of 2.31. For EASNCFAIRHFENKFAVETLICGSPSVQTTEFER, the amyloid nucleation score was “inactive”. For EASNCFAIRHFENKFAVETLICGSPT, the amyloid nucleation score was “inactive”. With EASNCFAIRHFENKFAVETLICGSRIEGSLRHGS the amyloid nucleation score was “inactive”. For EASNCFAIRHFENKFAVETLICGSRL, the amyloid nucleation score was 2.78. For EASNCFAIRHFENKFAVETLICGSRQEGVWGDAR, the amyloid nucleation score was “inactive”. With EASNCFAIRHFENKFAVETLICGSRRDKRKGSRC the amyloid nucleation score was “inactive”. With EASNCFAIRHFENKFAVETLICGSRRDVTFVYTP the amyloid nucleation score was “inactive”. For EASNCFAIRHFENKFAVETLICGSRRERWLGGWR, the amyloid nucleation score was 5.53. For EASNCFAIRHFENKFAVETLICGSRYQSKVVKAK, the amyloid nucleation score was “inactive”. In the case of EASNCFAIRHFENKFAVETLICGSSVRSLIRWDW, the amyloid nucleation score is reported as “inactive”. In the case of EASNCFAIRHFENKFAVETLICGSTKASAWSGVS, the amyloid nucleation score is reported as “inactive”. Sequence EASNCFAIRHFENKFAVETLICGSTRLVRYLPGV has an amyloid nucleation score of -0.396. EASNCFAIRHFENKFAVETLICGSVF showed an amyloid nucleation score of 3.78. In the case of EASNCFAIRHFENKFAVETLICGSVLGQSNAWNE, the amyloid nucleation score is reported as 5.11. With EASNCFAIRHFENKFAVETLICGSVLTFATSLDS the amyloid nucleation score was 7.05. With EASNCFAIRHFENKFAVETLICGSVPPGQRDRCG the amyloid nucleation score was “inactive”. EASNCFAIRHFENKFAVETLICGSVVSCGICPTQ gave an amyloid nucleation score of 8.18. EASNCFAIRHFENKFAVETLICGSWL showed an amyloid nucleation score of 8.86. With EASNCFAIRHFENKFAVETLICGSWRRHDMRWKG the amyloid nucleation score was “inactive”. For EASNCFAIRHFENKFAVETLICGSYTGRVTSSVE, the amyloid nucleation score was “inactive”. For EASNCFAIRHFENKFAVETLICGSYWLLWKYKTR, the amyloid nucleation score was “inactive”. For EASNCFAIRHFENKFAVETLICGTEHYVDCRCAS, the amyloid nucleation score was “inactive”.
